# Data: PMC6212790
# The other results are listed elsewhere or left out. At the low end of the ranking, values are background and their order means little.
# Target: T1, GST-Rok (full length) (UniProt O34857)
# T1 sequence: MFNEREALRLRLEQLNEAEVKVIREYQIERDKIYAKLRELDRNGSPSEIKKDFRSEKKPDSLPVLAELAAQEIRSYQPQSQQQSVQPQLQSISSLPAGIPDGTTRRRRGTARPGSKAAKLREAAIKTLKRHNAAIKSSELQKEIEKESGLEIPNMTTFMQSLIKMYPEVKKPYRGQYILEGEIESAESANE
# Assay: protein binding microarray;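 further: rank score from −0.5 (least bound) to 0.5 (best bound)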
# Conditions: Rok is a gene silencer of Bacillus subtilis; high values mean tight binding; most listed sequences are background and not binding sites; double strand, one strand shown
row,Sequence,binding signal
1,ATATCCCG,-0.0367 E-score
2,CAGACGCG,-0.266 E-score
3,AACTTAGA,0.114 E-score
4,AGCAGGAT,-0.0321 E-score
5,AGGTCTAG,-0.13 E-score
6,ACGAGGGA,-0.261 E-score
7,GATTACCC,-0.171 E-score
8,CGAGTTTC,0.0534 E-score
9,CCTCGGGA,-0.21 E-score
10,ATTAGACC,0.047 E-score
11,AACATTAG,0.269 E-score
12,CTTGTTCA,0.0668 E-score
13,CCCGTCGC,-0.231 E-score
14,GTTGCGGA,0.0202 E-score
15,GGTTAACC,-0.0306 E-score
16,CCGTCTAC,-0.107 E-score
17,AAATTGTC,0.121 E-score
18,AACCGCTT,-0.0627 E-score
19,CCTGAGAG,-0.153 E-score
20,AAGCAGAT,0.0889 E-score
21,AGTCAGAA,0.0781 E-score
22,GTATGATA,0.323 E-score

row,Sequence,binding signal
1,AGTATACG,0.274 E-score
2,CGTGAGGC,-0.181 E-score
3,ACGCACAA,-0.1 E-score
4,CGAGCATA,0.139 E-score
5,AACTAGGA,0.211 E-score
6,CACCCAAG,-0.249 E-score
7,ATTGCTGG,0.0752 E-score
8,GGCTTTAC,0.00573 E-score
9,CAGAGCGC,-0.0616 E-score
10,GACGTCTA,0.217 E-score
11,CATAGCGA,0.0421 E-score
12,CGCCGCAG,-0.275 E-score
13,ACCGGATC,-3.57e-05 E-score
14,ATGGCGTA,0.00897 E-score
15,AAATAATC,0.286 E-score
16,ACGAGCCG,-0.365 E-score
17,CATGGGCA,-0.0307 E-score
18,GGCCACAC,-0.25 E-score
19,CCAGGTTC,-0.307 E-score
20,ATACTTTC,0.334 E-score
21,CTGGACAA,-0.0964 E-score
22,AAGGGCCA,-0.244 E-score

row,Sequence,binding signal
1,ATCTATTA,0.312 E-score
2,AAACACTG,-0.0947 E-score
3,TGAAATAA,0.257 E-score
4,CAAGCCCA,-0.0682 E-score
5,AAAGCAAG,0.0646 E-score
6,AGTCACAG,-0.0307 E-score
7,AACGGAGG,-0.132 E-score
8,GTCATGTA,0.264 E-score
9,ATACGATG,0.0889 E-score
10,CGCGTTCC,-0.127 E-score
11,ACGTAGAA,0.195 E-score
12,ACTTCGGC,-0.201 E-score
13,GGGCTGGA,-0.292 E-score
14,CTCGGGGA,-0.285 E-score
15,CGAGCCGA,-0.319 E-score
16,GATCCAAC,-0.17 E-score
17,ATAATCAT,0.263 E-score
18,CAGGACCA,-0.143 E-score
19,AAAGGGAT,-0.13 E-score
20,GCGTGCAA,-0.188 E-score
21,AGAGGCAT,-0.0614 E-score
22,CGCTCAAG,-0.0739 E-score

row,Sequence,binding signal
1,CAAGTAAC,0.0806 E-score
2,AGTAAGGA,-0.0123 E-score
3,CTGTCGCC,-0.196 E-score
4,ACGCCGCG,-0.162 E-score
5,ACAGACAT,0.0548 E-score
6,AGCCGCTG,-0.204 E-score
7,CATCGGGA,-0.0816 E-score
8,ATGCGGGG,-0.411 E-score
9,AAGGTCAA,0.000225 E-score
10,ATTGTAGG,0.0383 E-score
11,ACCCAAAT,0.022 E-score
12,CCGCCAAC,-0.337 E-score
13,CTCAGTCC,-0.209 E-score
14,CAACTACC,0.303 E-score
15,CCGCTTAG,-0.177 E-score
16,TCATCCGA,-0.00791 E-score
17,AGGCGGTC,-0.384 E-score
18,ACTTTGGG,0.0189 E-score
19,GGGAAGGA,-0.176 E-score
20,ATGAGCCC,-0.319 E-score
